Measurements published in the RNAGym collection of RNA variant scans (doi:10.7554/elife.90254).
The source gives no read counts; variants with many changes may rest on few reads.

B1: LINE1-full (parent)
chain: UACGUAGGUGGUUUUCCCCUGAUAGUGCUAAGGGGGCCUGGAAGUUUGGACUGGGCAGAGCUCAACACAGCGUGGCAAAGUGGCUGUGGCUAGACUGCCUCUCUGGAUUCCUCGUCACUCAGCAGGGCAUCUCUGAGAGAAAUGCC

Variants of: B1
Assay: self-cleavage, relative activity (ratio to wild type); higher = more cleavage; in vitro, sequencing; the parent is a self-cleaving ribozyme

**Q.** With U62C A65G U85A A138G as the variant, how does the self-cleavage read?
**A.** 0

**Q.** Which self-cleavage does the source give for U14C A67G A136G here?
**A.** 0.4

**Q.** With U1C U112A G135U C145U as the variant, how does the self-cleavage read?
**A.** 1.29

**Q.** For U87C U115G U119A, which self-cleavage is on record?
**A.** 0

**Q.** With A94U U109A A140G as the variant, how does the self-cleavage read?
**A.** 0.36

**Q.** For A42U C90A U96C, which self-cleavage is on record?
**A.** 0.03

**Q.** For U9C A77U A78U A92U, which self-cleavage is on record?
**A.** 0.76

**Q.** Which self-cleavage does the source give for A2G U73A C76A U96C C103U U119C here?
**A.** 0.09

**Q.** For A24G U108C U112C U115A, which self-cleavage is on record?
**A.** 1.88

**Q.** With A30U U109G G125U as the variant, how does the self-cleavage read?
**A.** 0.39

**Q.** Which self-cleavage does the source give for C19U U46C U52C A94G here?
**A.** 0

**Q.** For A43U A77G G114A U115C, which self-cleavage is on record?
**A.** 2.07

**Q.** Which self-cleavage does the source give for U13C U119C A141G here?
**A.** 2.04

**Q.** Which self-cleavage does the source give for U5C U26A U46C C90A here?
**A.** 0.04

**Q.** With U9C U12C U100A A142G as the variant, how does the self-cleavage read?
**A.** 1.04

**Q.** Which self-cleavage does the source give for U9C A42U G60U here?
**A.** 0.08

**Q.** Which self-cleavage does the source give for U5A A42G C71A U104C here?
**A.** 1.61

**Q.** For U14C U47A G75A U87C G135A, which self-cleavage is on record?
**A.** 0.23

**Q.** Which self-cleavage does the source give for U13C U87C A121G A138U here?
**A.** 0.92

**Q.** Which self-cleavage does the source give for A64G A117C A142G here?
**A.** 0.46

**Q.** Which self-cleavage does the source give for U102C U115C A140G here?
**A.** 2.57

**Q.** For U15A U62C A138G, which self-cleavage is on record?
**A.** 0.67

**Q.** For U20C U87C A129G A138U, which self-cleavage is on record?
**A.** 0

**Q.** Which self-cleavage does the source give for U12C G97A A107G G139A here?
**A.** 0.13

**Q.** For U15C U52C A69G U143C, which self-cleavage is on record?
**A.** 0

**Q.** Which self-cleavage does the source give for U14G U20C U26G U85A U100C here?
**A.** 0.34

**Q.** For U12C C18A U62A, which self-cleavage is on record?
**A.** 0.16

**Q.** Which self-cleavage does the source give for U9A U20G A67G here?
**A.** 0

**Q.** With A69U C71A A141G as the variant, how does the self-cleavage read?
**A.** 0.01

**Q.** With U20C U108A U112C as the variant, how does the self-cleavage read?
**A.** 1.28

**Q.** For A24G A57G A67G, which self-cleavage is on record?
**A.** 0

**Q.** With U15A A22U U96A A142G as the variant, how does the self-cleavage read?
**A.** 0.05

**Q.** For G33A A57U U62C A136G, which self-cleavage is on record?
**A.** 0.12

**Q.** For U9C U12A A24G, which self-cleavage is on record?
**A.** 0.71

**Q.** For U96G A138G U143A, which self-cleavage is on record?
**A.** 0.08

**Q.** For A43G U85C A92U A136G, which self-cleavage is on record?
**A.** 0

**Q.** For U12A U45A A124U A129G U130C, which self-cleavage is on record?
**A.** 2.04

**Q.** Which self-cleavage does the source give for U46C A50G C90A here?
**A.** 0.06

**Q.** For A6G A65G C90U A129U, which self-cleavage is on record?
**A.** 0.06

**Q.** With U1C U52G A65G as the variant, how does the self-cleavage read?
**A.** 0.1

**Q.** Which self-cleavage does the source give for U14C U15C A79G here?
**A.** 1.67

**Q.** With A50U A64U U100C as the variant, how does the self-cleavage read?
**A.** 0.51

**Q.** With C37G A79U A117U U143A as the variant, how does the self-cleavage read?
**A.** 1.99

**Q.** For C38A A92G U104C A142G, which self-cleavage is on record?
**A.** 0.08

**Q.** With U12G U108C A141G as the variant, how does the self-cleavage read?
**A.** 0

**Q.** With A94G U104C U130A as the variant, how does the self-cleavage read?
**A.** 0.18

**Q.** For A6U U29C U46A C113U, which self-cleavage is on record?
**A.** 1.25

**Q.** Which self-cleavage does the source give for A24G G32U A77U here?
**A.** 0.71

**Q.** For U96A A117G A136U, which self-cleavage is on record?
**A.** 0.07

**Q.** Which self-cleavage does the source give for C28A U29C A142G here?
**A.** 1.02

**Q.** Which self-cleavage does the source give for U73C G93A U100C here?
**A.** 0

**Q.** With G53U U100C G106U C131U as the variant, how does the self-cleavage read?
**A.** 1.58

**Q.** Which self-cleavage does the source give for U12C U45C G49U here?
**A.** 0.9

**Q.** With G21A G25A G126A A141G as the variant, how does the self-cleavage read?
**A.** 1.08

**Q.** With A78G G86U A140U C146U as the variant, how does the self-cleavage read?
**A.** 0.05

**Q.** Which self-cleavage does the source give for A2U U29C A42G U52C A141G C146A here?
**A.** 2.63

**Q.** With A65G U87C A92G as the variant, how does the self-cleavage read?
**A.** 0

**Q.** With G34U A77U U108A U109A U115C as the variant, how does the self-cleavage read?
**A.** 1.44

**Q.** Which self-cleavage does the source give for G25A U62C A69U here?
**A.** 0.05

**Q.** With U46C U96A A138G as the variant, how does the self-cleavage read?
**A.** 0.06

**Q.** For C61A A67G A129U, which self-cleavage is on record?
**A.** 0.04

**Q.** With U52A U96A U115C as the variant, how does the self-cleavage read?
**A.** 0.1

**Q.** Which self-cleavage does the source give for U15C U26C C128U here?
**A.** 1.75

**Q.** For U73A U102C U119A U134C, which self-cleavage is on record?
**A.** 2.12

**Q.** With A57U A59G A94U as the variant, how does the self-cleavage read?
**A.** 0.04

**Q.** With A22G G40A A50G A138U as the variant, how does the self-cleavage read?
**A.** 0.89

**Q.** For U13C A50G G127A, which self-cleavage is on record?
**A.** 0

**Q.** With U14C A59G A78G as the variant, how does the self-cleavage read?
**A.** 0

**Q.** With U26C A31G A124U U134C as the variant, how does the self-cleavage read?
**A.** 1.9

**Q.** For G41U U91C A141G, which self-cleavage is on record?
**A.** 0.73

**Q.** For A42G G60C A77G, which self-cleavage is on record?
**A.** 0

**Q.** Which self-cleavage does the source give for A6G A24G A50U A78C here?
**A.** 0.51

**Q.** Which self-cleavage does the source give for U29C A43G C56U A64U A69G A77G U91A here?
**A.** 0.11

**Q.** With U13C A30G U62A as the variant, how does the self-cleavage read?
**A.** 0.43

**Q.** Which self-cleavage does the source give for G33A A50G U91C A92G here?
**A.** 0.24

**Q.** With G53A U62C U115C as the variant, how does the self-cleavage read?
**A.** 0.05

**Q.** With G21A C56U U85G U115A A140G as the variant, how does the self-cleavage read?
**A.** 0.01

**Q.** For A30G U100C A121U, which self-cleavage is on record?
**A.** 0.78

**Q.** Which self-cleavage does the source give for U13C U108C A138U here?
**A.** 1.37

**Q.** Which self-cleavage does the source give for G25A A77G U81A U112C here?
**A.** 2.54

**Q.** For G49A A69G C84U U132A, which self-cleavage is on record?
**A.** 0.03

**Q.** For U87A A138G A140G A141G, which self-cleavage is on record?
**A.** 0.15

**Q.** With C66U A79G U87G A94G U109A as the variant, how does the self-cleavage read?
**A.** 0
